Source: paper PMC4336329 (PLoS ONE, 2015)
The campaign covered roughly 310,000 compounds. About 2,200 (0.71%) showed an effect of 50% or more. The effect is printed as a negative number. The list shows a part of the results.

What follows are compounds tested against human ether-à-go-go-related gene (hERG) potassium channel (human, UniProt Q12809) (assay: primary screen, population patch clamp on CHO cells stably expressing hERG).
human ether-à-go-go-related gene (hERG) potassium channel, sequence (Q12809 whole entry, looked up): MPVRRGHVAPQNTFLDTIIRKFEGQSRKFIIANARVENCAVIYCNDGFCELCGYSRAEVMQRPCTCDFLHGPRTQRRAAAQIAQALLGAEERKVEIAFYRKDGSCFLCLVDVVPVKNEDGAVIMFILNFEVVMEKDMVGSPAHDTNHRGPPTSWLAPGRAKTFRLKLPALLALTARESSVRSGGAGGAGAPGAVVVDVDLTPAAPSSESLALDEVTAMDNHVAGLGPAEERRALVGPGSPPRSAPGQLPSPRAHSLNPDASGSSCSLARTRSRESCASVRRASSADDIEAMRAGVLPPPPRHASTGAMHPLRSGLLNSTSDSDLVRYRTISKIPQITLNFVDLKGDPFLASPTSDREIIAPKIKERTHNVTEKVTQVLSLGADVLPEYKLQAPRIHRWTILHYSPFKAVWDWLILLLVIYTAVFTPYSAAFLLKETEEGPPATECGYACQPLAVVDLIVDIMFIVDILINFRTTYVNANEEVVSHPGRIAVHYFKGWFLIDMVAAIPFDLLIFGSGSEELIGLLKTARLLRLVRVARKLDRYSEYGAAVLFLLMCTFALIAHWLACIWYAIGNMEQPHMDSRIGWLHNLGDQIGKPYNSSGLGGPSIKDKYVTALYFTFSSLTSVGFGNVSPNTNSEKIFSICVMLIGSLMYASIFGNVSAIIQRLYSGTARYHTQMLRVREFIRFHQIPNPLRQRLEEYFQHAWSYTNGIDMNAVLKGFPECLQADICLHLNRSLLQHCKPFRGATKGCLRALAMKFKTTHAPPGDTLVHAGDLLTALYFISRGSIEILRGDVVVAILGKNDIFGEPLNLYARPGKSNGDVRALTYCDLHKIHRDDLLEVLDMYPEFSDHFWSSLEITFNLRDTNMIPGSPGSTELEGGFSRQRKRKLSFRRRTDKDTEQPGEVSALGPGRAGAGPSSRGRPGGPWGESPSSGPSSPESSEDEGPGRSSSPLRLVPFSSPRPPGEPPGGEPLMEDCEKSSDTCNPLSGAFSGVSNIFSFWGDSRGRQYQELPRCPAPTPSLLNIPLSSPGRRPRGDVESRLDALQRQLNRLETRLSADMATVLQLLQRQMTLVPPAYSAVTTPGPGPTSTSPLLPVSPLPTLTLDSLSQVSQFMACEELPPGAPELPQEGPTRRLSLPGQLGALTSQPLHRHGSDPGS

| SMILES | hERG current change (%, negative = inhibition) at 1uM [%] |
| --- | --- |
| CC(=O)c1ccc2c(c1)CC(C)C(=O)N2C (centres unmarked) | 10.8 |
| O=S(=O)(NCC1CCN(c2ccc(S(=O)(=O)N3CCOCC3)cc2)CC1)c1ccc(F)cc1 | 11.8 |
| CSc1oc(-c2ccc(F)cc2)nc1S(=O)(=O)c1ccc(F)cc1 | 4.6 |
| [N-]=[N+]=CC(=O)CC(c1ccccc1)N1C(=O)c2ccccc2C1=O (centres unmarked) | 14 |
| COc1cc(NC(=O)CN2C(=O)NC(C)(CC(C)C)C2=O)cc(OC)c1 (centres unmarked) | 8.98 |
| CCOC(=O)CC1=NC(=O)CS1 | 10.8 |
| CCN(CC)CC(C)CNC(=O)C1(O)c2ccccc2NC(=O)N1c1ccc(Cl)c(Cl)c1 (centres unmarked) | 9.43 |
| CCCc1cc(=O)oc2cc(OCc3nn[nH]n3)ccc12 | 9.28 |
| CCc1noc(C)c1C(=O)N1CCCC(N2CCN(c3cccc(Cl)c3)CC2)C1 (centres unmarked) | 13.7 |
| Cc1cc(C)cc(NC(=O)CSc2nc3ccccc3nc2N2CCCCC2)c1 | 10 |
| CC(=O)Nc1cccc([As](=O)(c2cccc(NC(C)=O)c2)c2cccc(NC(C)=O)c2)c1 | 2.73 |
| CC(=O)Nc1ccc(/C(C)=N/NS(=O)(=O)c2ccc(C)cc2)cc1 | 12.3 |
| N#Cc1c(NC(=S)NC(=O)Cc2cccs2)sc2c1CCCCC2 | 2.72 |
| COc1cc(CCC(=O)NCCc2ccc(F)cc2)cc(OC)c1OC | 18.3 |
| CN1CCc2c1nc1ccccc1c2N=C1CCCN1Cc1ccccc1.Cl | 13.9 |
| COc1ccc(C2SCCN2C(=S)Nc2cccc(Cl)c2)cc1 (centres unmarked) | 10.4 |
| CCOC(=O)C1CCCN(CCSc2ccc(C)cc2)C1.Cl (centres unmarked) | 9.49 |
| CCOC(=O)CN1C(=O)CN(c2ccc(C)cc2)C1=O | 11 |
| Nc1ccc(-n2cc(-c3ccccc3)[nH]c2=S)cc1 | 16 |
| O=C(NCc1ccccc1)C(c1ccccc1)N(Cc1cccs1)C(=O)c1cnccn1 (centres unmarked) | -2 |
| Cc1c(C(=O)O)oc2ccc(S(=O)(=O)NCc3ccc(F)cc3)cc12 | 1.84 |
| CCOC(=O)C(=O)N/N=C/c1ccco1 | 14.9 |

| SMILES | hERG current change (%, negative = inhibition) at 1uM [%] |
| --- | --- |
| O=C(CCSc1nc2ccccc2s1)N/N=C/c1c(O)ccc2ccccc12 | 9.91 |
| NC(=O)C1CCCN(CC(=O)Nc2cc(S(=O)(=O)N3CCOCC3)ccc2N2CCCC2)C1 (centres unmarked) | -0.144 |
| CCOC(=O)c1cnc(-n2nc(C)cc2C)nc1NNc1cc(-c2ccccc2)nc(C)n1 | 17.4 |
| CCN(C(=O)CN1C(=O)S/C(=C\c2ccc(F)cc2)C1=O)C1CCS(=O)(=O)C1 (centres unmarked) | 13 |
| Cc1c(C(=O)O)sc2nc(-c3cccs3)cc(C(F)(F)F)c12 | 17.3 |
| CCCn1c(SCC(=O)Nc2ccccc2Oc2ccccc2)n[nH]c1=O | 3.49 |
| CC(=O)N1CCC2(CC1)NC(=O)N(c1ccccc1)N2 | 9.53 |
| CCN(Cc1ccncc1)Cc1nc(-c2ccc(C(=O)OC)cc2)no1 | -0.646 |
| O=C(COC(=O)c1ccccc1)NCC1CCCO1 (centres unmarked) | -1.28 |
| Cc1cc(C)c(S(=O)(=O)N2CCN(C(=O)N3CCCCC3)CC2)c(C)c1 | 4.89 |
| CCOC(=O)Cc1csc(NC(=O)Cc2ccc(C)cc2)n1 | 5.76 |
| Cc1ccc(S(=O)(=O)Oc2ccccc2/C=N/NC(=O)c2nn(C)cc2[N+](=O)[O-])cc1 | 10.2 |
| Cc1c(NC(=O)c2cccs2)c(=O)n(-c2ccccc2)n1C | 12.9 |
| O=S(=O)(/C=C/c1ccccc1)NC1CCCCCC1 | 14.5 |
| COc1ccc(C2=NOC(C(=O)Nc3ccc4c(c3)OCO4)C2)cc1 (centres unmarked) | 13 |
| COc1ccc(C(=O)NCc2nnc(SCC(=O)N3CCC(C)CC3)o2)cc1 | 8.68 |
| CN(C)Cc1c(C(=O)N/N=C/c2ccncc2)nnn1-c1nonc1N | 10.9 |
| COC(=O)C1=C(O)/C(=C\c2cc(C)n(-c3ccccc3F)c2C)N=C1C | 15 |
| COc1ccc(Cc2nc(-c3ccccc3)no2)cc1 | 11.8 |
| Cc1cc(Br)ccc1NC(=O)CNC(=O)CSc1n[nH]c(N)n1 | 12.3 |
| COc1ccc(-n2c(C)nc3sc4c(c3c2=O)CCCC4)cc1 | 11.7 |
| COc1ccc(CNC(=O)CN(C)Cc2ccc(SC)cc2)cc1 | -31.2 |
